Values marked as one replicate rest on one cluster of the flow cell; about a third of the high ones do not repeat.
System: ATP
Assay: switch fluorescence ratio, 500 uM ATP over buffer (Cy3 cluster intensity, sum of 5 cycles each) (fold (ratio)); higher = stronger signal-on switching upon ATP binding; sequences stand for … in TCGTCGGCAGCGTCAGATGTGTATAAGAGACAGTTTTTTTTTTTTTTTTTTTTTTTTT…TC
Settings: aptamer strand: ATP DNA aptamer (quencher-CACCTGGGGGAGTATTGCGGAGGAAGG + anchor), 100 nM annealed; ATP concentration: 500 uM; one replicate
Method in brief: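 Imaging in selection buffer was followed by imaging after 15 min with 500 uM ATP at 22 °C, for Cy3-labelled switching-strand clusters annealed to 100 nM quencher-labelled ATP aptamer on a modified Illumina MiSeq flow-cell. Five of these buffer/ATP cycles ran, separated by NaOH stripping and re-annealing. The fluorescence ratio per cluster is summed target-cycle over summed buffer-cycle Cy3 intensity, averaged per switch-domain sequence; clusters outside 100-1000 RFU were removed.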
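Further: ATP exposure 15 min at 22 °C before imaging.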

Sequence | switch fluorescence ratio
AGGATTGAGC | 1.02
AGACCAGCGT | 1
ATTGTGTGTA | 0.941
CCCATATCGC | 1.09
CTTCTTAATC | 1.05
AGATAGCCAG | 0.983
ATGGCTAA | 0.954
TCGACTAGAT | 1.07
CTAAATTGAG | 0.962
GATACATCCG | 1.1
TTGTCAATCC | 1.08
ATGTCCTACC | 1.32
ACGTTTCGAT | 0.976
TTTTAATGCC | 0.986
ATTTAATGTT | 1.03
TTCGTAGCTT | 1.18
ATTTTCGTGC | 1.01
CTGATGCGC | 1.53
TTAGTTGCCT | 0.971
GCTCGCCAGA | 1.03
CGGTCCAAAA | 1.02
TTGCGTGAG | 1
TTTTCTATTA | 1

Sequence | switch fluorescence ratio
CGTGAGTTAT | 1.02
CCTATACAAG | 1.02
ATTGTGAAGG | 0.982
ATCAGCTGGG | 1.02
CACCTGTCTG | 0.993
GTCGTTTGAG | 0.95
GAACATTTAT | 1.02
GATGCTTCCA | 0.981
TCCATTGAAA | 0.972
GAAGCCCCGC | 0.936
AATGACCCGG | 0.973
GATTGTACTG | 1.02
TACCTCGTTT | 1
CTGCTATCTA | 1.05
GAGGGGAACG | 1.01
TGGTGGCCTG | 1.01
CGCAAGAGTG | 1.63
TACATGGTGG | 1.02
CCGTAGATGG | 1.85
GACCGGTGGC | 1.03
GTATCCCTTG | 0.941
CGGCCCGAGT | 1.58
CACCGATCAA | 1.32

Sequence | switch fluorescence ratio
ATGTATTCC | 1.02
GTAAGTTTTG | 1.01
TTTAGGAGAT | 1.02
AAATTACACG | 1.1
TTCTAATGGA | 0.995
CACTACGGGC | 1.09
ATATATTAAG | 0.995
TGAATAGTTT | 1.02
CTTTTCAATC | 1.73
ATAATTTGCA | 0.974
AACTATGGGA | 1
TGTCCGCCGC | 2.66
ATGCTTTCCG | 0.963
CGGGCGTGGG | 0.986
TTTAACGCTC | 1.04
CGGAACATTA | 1
TAGCAGAATG | 1.05
AGTTACAGC | 1.01
GCCGTAACTC | 1.05
CTAGCACAAA | 0.971
ATTGACACGT | 1.02
GTACCCATTA | 1.01
CCAACATACC | 1.34

Sequence | switch fluorescence ratio
AGAGTCAGCT | 0.956
GGCAGACACG | 1.04
TGGTACTGCA | 1.08
GGTGACTGAC | 1.1
ATGAATTCTA | 0.971
ATCGCCGACT | 1.01
CCTTGCCGAC | 1.41
GATTGGAATG | 0.994
GAATACGCCC | 1.9
CAGACGCAGT | 2.3
CCTGTCCACT | 0.998
CACCTCGTAG | 1.03
ACTTGGAATT | 1.07
CATTGACCGT | 0.99
GAAGGTGGCG | 1.02
CCGACTAGGA | 0.985
TATAATGTCT | 0.976
CAAGTTTTGA | 0.984
GTTAGAGCTT | 1.01
GGTCTTGAAA | 0.96
TTCGTACGG | 0.961
GAGTCAGCTG | 0.93
GCTCTGTGGA | 1.04

Sequence | switch fluorescence ratio
TTAAAATTC | 0.968
TACCTACGGT | 1.29
ATGCATTAAC | 1.12
TTAATTAGAT | 1.02
CTATATGACC | 1
GGGATTCGCG | 0.93
AAAGTGAATA | 0.973
CAAGAAGCGG | 1.06
AGCCGATTTT | 1.01
TAAGAAGGCA | 1.03
ACCCCCATAG | 2.71
AGGCCGCTAT | 1.17
AATGTATCGA | 0.988
TCTAAAATAG | 1.05
ATGGATTCCA | 0.989
CAACGAAGAC | 1.85
GTCATCATTA | 1.04
CGCATCTACT | 3.64
GCCTGCTCC | 1.18
TATGTTGTGG | 0.957
GCCTGGGTTT | 0.96
GCGGGCAACT | 1.01
AGGAAACCGT | 0.996

Sequence | switch fluorescence ratio
ATTCATACAG | 1.04
GCCAGGTGAG | 4.66
TACCGGCCTC | 1.7
GGACGTGTCT | 1.01
TGCGAGAG | 1.01
ATGATGCAGC | 1.04
ATTGAGACCC | 1.02
GGTGAACTAG | 0.996
AGGCGTTCGC | 1.01
TAGTGATTCG | 0.991
TTGTAAGTGC | 1.03
GGGGTGGAG | 1.01
ATTGCAAATT | 0.963
ACCGCATTCT | 2.44
ACTTTCTTGT | 0.989
GTTGTCCATT | 0.97
CAGAAACCGA | 1.94
GGTGTTGCTC | 0.956
GTGCCCGAAA | 1.07
TTGTTGTTGC | 1.04
AATTATGCCA | 0.987
TTACTAACT | 1.14
TGCATAAGTC | 1.03

Sequence | switch fluorescence ratio
ATAGGGGCTG | 1.08
ACAATCGGTG | 1.05
CTGCGTTTTC | 1.1
TCATGCGTG | 0.971
GTCGGGTCTT | 0.998
GAGTTCTACT | 0.99
CGCTGAGCGC | 1.01
TAAGATAGC | 0.999
TAAAGTCTAG | 0.964
ATGGATAATC | 0.985
GTTGGGTCCG | 0.97
GACTTTCGCA | 1.51
TAGGGTCGCC | 1.02
TTACACTAGA | 1.04
AGTCCCGTAC | 1.1
TGGCCACCGG | 1.01
TCATGCACG | 0.963
TGTCGCCCCC | 1.05
TTATGAACT | 0.968

From the supplement of paper PMC10126150
